# Data published in PubChem BioAssay AID588342 (National Center for Advancing Translational Sciences (NCATS), 2011).
# Several values for one entry are separate records, joined by “and”; a condition that tells them apart may be missing. Equal values may be shown once. The whole screen tested about 360,000 compounds, of which about 25,000 (6.9%) were called active. The shares of active, inactive and inconclusive entries below differ from those in the screen. Calls follow the shape of the dose curve; as a rule, active = well fitted inhibition curve with a large enough effect; inconclusive = small, poorly fitted or top-dose-only effect; inactive = flat fitted curve, though single readings scatter. A potency beside an inconclusive call is a rough fit, not a confirmed value.
# Molecular target: Luciferin 4-monooxygenase (Photinus pyralis) (UniProt P08659)
# UniProt P08659, sequence (P08659 whole entry, looked up): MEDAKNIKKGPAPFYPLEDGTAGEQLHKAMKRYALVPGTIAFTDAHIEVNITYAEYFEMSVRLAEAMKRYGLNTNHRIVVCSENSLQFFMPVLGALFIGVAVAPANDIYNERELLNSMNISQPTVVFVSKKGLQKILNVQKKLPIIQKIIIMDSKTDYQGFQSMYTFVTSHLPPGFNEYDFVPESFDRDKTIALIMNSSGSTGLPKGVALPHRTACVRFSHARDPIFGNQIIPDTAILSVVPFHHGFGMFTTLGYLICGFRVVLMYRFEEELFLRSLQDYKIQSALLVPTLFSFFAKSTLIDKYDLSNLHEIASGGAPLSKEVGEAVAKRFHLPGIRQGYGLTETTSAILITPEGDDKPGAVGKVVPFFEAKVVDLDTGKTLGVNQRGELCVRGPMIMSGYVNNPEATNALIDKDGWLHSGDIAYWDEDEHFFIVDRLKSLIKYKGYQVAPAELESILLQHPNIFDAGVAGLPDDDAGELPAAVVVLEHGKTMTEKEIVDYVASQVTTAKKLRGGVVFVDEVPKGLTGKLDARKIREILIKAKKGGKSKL
# Experiment: qHTS profiling assay for firefly luciferase inhibitor/activator using purifed enzyme and Km concentrations of substrates (counterscreen for miR-21 project); also: nearly all actives have a fitted effect of over 55% in size;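 as to activity change, negative = inhibition: plate controls were vehicle for no effect and reference inhibitor for full effect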
# Conditions: purified FLuc, luminescence inhibition; series mostly up to 57.5 µM; activity change, negative = inhibition: at the top concentration
# Outline: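 Purified P. pyralis luciferase (10nM final) with 10uM D-luciferin and 10uM ATP (Km levels) in 50mM Tris acetate pH 7.5, 10mM Mg acetate, 0.01% Tween-20, 0.05% BSA; qHTS 6-point titration, ~60 µM downward; luminescence read.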
# Potency is read from the fitted curve at half-maximal effect; tags tell the direction and shape of the fitted curve.
Structure (SMILES),Potency,"activity change, negative = inhibition"
Cc1cccc(NC(=O)Nc2cc(C)cc(C)n2)c1,active: 1.51 µM,–
CC(C)(C)C1CCc2onc(C(=O)Nc3cccnc3)c2C1 (stereo not given),"inconclusive: 19 µM [inhibitor, partial curve]",–
Cc1cc(C)nc(NC(=O)Nc2ccc3c(c2)OCO3)c1,"inconclusive: 0.478 µM [inhibitor, full curve, poor fit]",–
CCOC(=O)c1cccc(NS(=O)(=O)c2ccc(-c3cnc(C4CC4)o3)cc2)c1,"inconclusive: 23.9 µM [inhibitor, single point]",–
Cc1[nH]n(-c2ccc(Br)cc2)c(=O)c1/C=N/NC(=O)c1ccccc1,active: 2.13 µM,–
COc1cc(/C=C(\C#N)c2ccccn2)ccc1OCc1ccc(Cl)cc1,"inconclusive: 37.9 µM [inhibitor, partial curve, poor fit]",–
COc1ccc(/C(C)=N/NC(=O)c2sccc2-n2cccc2)cc1,"inconclusive: 23.9 µM [inhibitor, partial curve]",–
Cc1ccc(S(=O)(=O)c2cc3ccccc3oc2=O)cc1,–,inactive: -4.17%
Cc1ccc(OCC(=O)Nc2ccc3nc(SCC(=O)N4CCOCC4)sc3c2)cc1,"inconclusive: 33.8 µM [inhibitor, partial curve, poor fit]",–
C=CCNC(=O)c1onc(CS(=O)(=O)c2cc(C)cc(C)c2)c1C(=O)NCC=C,–,inactive: -2.38%
Cc1cc(C(=O)COC(=O)/C=C/c2ccc(F)cc2)c(C)n1C,"inconclusive: 37.9 µM [inhibitor, partial curve, poor fit]",–
Cn1c(CN2CCCCC2)nc2cc(NC(=O)c3ccccc3Cl)ccc21,"inconclusive: 26.9 µM [inhibitor, single point] and inconclusive: 37.9 µM [inhibitor, partial curve, poor fit]",–
CCCCNC(=O)CCCn1c(=O)c2ccccc2n(Cc2cccc(Cl)c2)c1=O,–,inactive: -5.42%
CCOC(=O)c1ccc(N/C=C/C(=O)C(C)(C)C)cc1,active: 3.01 µM,–
O=C(N/N=C/c1cccnc1)c1[nH]ncc1Br,"inconclusive: 19 µM [inhibitor, partial curve]",–
Cc1ccc(C)n1-c1nnc(N2CCCC(C(=O)NCc3cccc(F)c3)C2)s1 (stereo not given),–,inactive: -5.1%
CC(C)(C)OC(=O)N/N=C\c1cccnc1,active: 10.7 µM,–
O=C(CNC(=O)c1ccc2c(c1)OCCO2)N/N=C/c1ccc(Cl)cc1,"inconclusive: 37.9 µM [inhibitor, partial curve, poor fit]",–
CC(C)CCNC(=O)c1ccc2c(SCC(=O)O)c3c(nc2c1)CCC3,"inconclusive: 26.9 µM [inhibitor, partial curve]",–
Cc1ccc(-n2nc(CO)c(C(=O)NCc3cccnc3)n2)cc1,–,inactive: -2.85%
COc1ccc(NC(=O)Nc2ccc(Br)cn2)cc1OC,"inconclusive: 37.9 µM [inhibitor, partial curve, poor fit]",–
CCOc1ccc(N2C(=O)Nc3ccccc3C2(O)C(=O)NCc2ccc3c(c2)OCO3)cc1 (stereo not given),"inconclusive: 37.9 µM [inhibitor, partial curve, poor fit]",–
COC(=O)c1cccc(NC(=O)/C=C/c2ccc([N+](=O)[O-])cc2)c1,active: 2.39 µM,–

Structure (SMILES),Potency,"activity change, negative = inhibition"
Cc1ccc(/C=N/NC(=O)c2ccccc2OCc2ccc(F)cc2)o1,"inconclusive: 26.9 µM [inhibitor, single point]",–
COc1cc(OC)cc(-c2cc3nc(C)c(CCC(=O)NCc4ccc(Cl)cc4)c(C)n3n2)c1,–,inactive: 0.152%
CCN1/C(=C/C=C/C=C/C=C/c2sc3ccccc3[n+]2CC)Sc2ccccc21,"inconclusive: 26.9 µM [inhibitor, single point]",–
CCN(C1CCS(=O)(=O)C1)S(=O)(=O)c1ccc(OC)c(OC)c1 (stereo not given),–,inactive: 1.49%
COc1ccc(C(=O)Nc2ccc(-n3nncc3-c3ccccc3)cc2)cc1OC,–,inactive: -9.43%
O=c1oc2cc(Br)ccc2n1CSC1=NCCS1,"inconclusive: 26.9 µM [inhibitor, single point]",–
COc1ccc(C(=O)/C=C/c2ccc3c(c2)OCCO3)cc1,active: 1.69 µM,–
COc1ccc(C2N=C(c3ccccc3)NO2)cc1OC (stereo not given),active: 10.7 µM,–
Cc1ccc(NC(=O)C(NS(=O)(=O)c2ccc3c(c2)CCC(=O)N3)c2ccccc2)cc1C (stereo not given),"inconclusive: 30.1 µM [inhibitor, partial curve, poor fit]",–
O=C1CS/C(=N/N=C/c2ccncc2)N1,"inconclusive: 26.9 µM [inhibitor, partial curve, poor fit]",–
Cc1ncc(CN2CCC(CO)(Cc3ccccc3)CC2)s1,–,inactive: 0.0534%
Cc1cccc(C(=O)OCC(=O)N2CCCC2=O)c1O,"inconclusive: 13.5 µM [inhibitor, partial curve, poor fit]",–
C/C(=N\NC(=O)CCn1nnc2ccccc21)c1cccs1,"inconclusive: 37.9 µM [inhibitor, partial curve, poor fit]",–
Cc1nn2c(=O)cc(COC(=O)c3ccc(NC(=O)C4CCCCC4)cc3)nc2s1,–,inactive: -2.1%
Cc1nc(NC(=O)Nc2ccc(Cl)cc2)sc1C,"inconclusive: 1.51 µM [inhibitor, full curve]",–
Cc1ccc(NC(=O)Cn2c(=O)n(CCCCC(=O)NCCc3ccccc3)c(=O)c3ccccc32)c(C)c1,–,inactive: 2.15%
O=C(COc1ccccc1Cl)Nc1ccc2oc(-c3ccccc3F)nc2c1,–,inactive: 2.45%
Cc1[nH]n(-c2ccc(F)cc2)c(=O)c1/C=N/c1sc2c(c1C#N)CCCC2,active: 13.5 µM,–
CCN(CC)CCN1C(=O)C(=O)/C(=C(/O)c2ccc(OC(C)C)cc2)C1c1cccs1 (stereo not given),"inconclusive: 23.9 µM [inhibitor, partial curve, poor fit]",–
N=c1oc2cc(O)ccc2cc1C(=O)Nc1ccccn1,"inconclusive: 26.9 µM [inhibitor, single point]",–
COc1ccc2nc(N(Cc3cccnc3)C(=O)c3ccc4c(c3)OCCO4)sc2c1,"inconclusive: 15.1 µM [inhibitor, partial curve]",–
Cc1cc([N+](=O)[O-])ccc1NC1CCCC1,"inconclusive: 21.3 µM [inhibitor, partial curve, poor fit]",–
